# Measured values: the supplement of paper PMC8183993
# Several values for one entry are separate records, joined by “and”; a condition that tells them apart may be missing. Identical values can stand only once. Counter-ions that a name gives are not always drawn. ± gives the standard deviation of the averaged measurements. Over roughly 3,100 compounds, “mean cytoplasmic OPP incorporation (global translation) relative to DMSO” has its median near 100; the lowest 2% begin near 56. This is one part of the list.
# Test system: U2OS
# Experiment: mean cytoplasmic OPP incorporation (global translation) relative to DMSO (% of DMSO); higher = more protein synthesis
# Details: 10 µM; 24 h
# Procedure: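 Primary image-based screen in U2OS cells: compounds at 10 uM for 24 h, then a 1 h o-propargyl-puromycin (OPP) pulse, click labelling, and high-throughput microscopy. Mean cytoplasmic OPP intensity and nuclei count were normalised to DMSO wells within each plate (DMSO = 100) and averaged over triplicate plates.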
row,Compound,mean cytoplasmic OPP incorporation
1,"CCN(CC)CCOc1ccc(C(=C(Cl)c2ccccc2)c2ccccc2)cc1 [Clomiphene citrate (Z,E)]",135
2,CCc1cc(-c2n[nH]c(C)c2-c2ccc3c(c2)OCCO3)c(O)cc1O,95.9 ± 2.1
3,CN1CCC(=C2c3ccccc3CCc3sccc32)CC1 [Pizotifen malate],116
4,COc1ncc(-c2ccc3nccc(-c4ccnnc4)c3c2)cc1NS(=O)(=O)c1ccc(F)cc1F,73.1
5,CN1CCOC(c2ccccc2)c2ccccc2C1 (stereo unspecified) [Nefopam hydrochloride],105
6,c1cc2c3c(c1)c1c(n3CCNC2)CCCC1 [WAY 629 hydrochloride],99.9
7,Cc1cnc(C(=O)NCCc2ccc(S(=O)(=O)NC(=O)NC3CCCCC3)cc2)cn1 [Glipizide],102 ± 4.6
8,CC(C)NC[C@H](O)COc1cccc2[nH]ccc12 [(S)-(-)-Pindolol],101
9,O=C(Cc1ccccc1)Nc1nc2ccc(Cl)cc2c2nc(-c3ccco3)nn12,104
10,CC(O)(P(=O)(O)O)P(=O)(O)O [Etidronate (Didronel)],106
11,"CC(O)(P(=O)(O)O)P(=O)(O)O [Etidronic acid, disodium salt]",109
12,Cc1ccc2c(=O)c3ccccc3n(CCCN)c2c1C,78.5
13,CCC1NC(=O)c2cc(S(N)(=O)=O)c(Cl)cc2N1 (stereo unspecified) [Quinethazone],103
14,COc1ccccc1N1CCN(CCCCNC(=O)c2ccc3ccccc3c2)CC1,112
15,Cc1c(Cl)cccc1Nc1ncccc1C(=O)O [Clonixin Lysinate],105
16,CCC[C@H](NC(=O)/C(C#N)=C/c1cccc(Br)n1)c1ccccc1,27.2
17,Cc1ccc(/C(=C\CN2CCCC2)c2ccccn2)cc1 [trans-Triprolidine hydrochloride],99.5
18,Cc1ccc(/C(=C\CN2CCCC2)c2ccccn2)cc1 [Triprolidine hydrochloride],101
19,CC(C)(O/N=C(\C(=O)N[C@@H]1C(=O)N2C(C(=O)[O-])=C(C[n+]3ccccc3)CS[C@H]12)c1csc(N)n1)C(=O)O [Ceftazidime pentahydrate],83.2
20,"C=C1/C(=C\C=C2/CCC[C@]3(C)[C@@H]([C@H](C)CCCC(C)(C)O)CC[C@@H]23)C[C@@H](O)C[C@@H]1O [1a,25-Dihydroxyvitamin D3]",101
21,C=C1/C(=C\C=C2/CCC[C@]3(C)[C@@H]([C@H](C)CCCC(C)(C)O)CC[C@@H]23)C[C@@H](O)C[C@@H]1O [Calcitriol (Rocaltrol)],102
22,CCc1c2c(nc3ccc(OC(=O)N4CCC(N5CCCCC5)CC4)cc13)-c1cc3c(c(=O)n1C2)COC(=O)[C@]3(O)CC,95.7
23,CCc1c2c(nc3ccc(OC(=O)N4CCC(N5CCCCC5)CC4)cc13)-c1cc3c(c(=O)n1C2)COC(=O)[C@]3(O)CC [Irinotecan],97.2
24,CCc1c2c(nc3ccc(OC(=O)N4CCC(N5CCCCC5)CC4)cc13)-c1cc3c(c(=O)n1C2)COC(=O)[C@]3(O)CC [Irinotecan hydrochloride trihydrate],99.7

row,Compound,mean cytoplasmic OPP incorporation
1,CNCCC=C1c2ccccc2CCc2ccccc21 [Nortriptyline hydrochloride],109
2,OC[C@H]1O[C@@H](OCCc2ccc(O)cc2)[C@H](O)[C@@H](O)[C@@H]1O [Salidroside (Rhodioloside)],121
3,CC1=C(/C=C/C(C)=C/C=C/C(C)=C/C(=O)O)C(C)(C)CCC1O (stereo unspecified) [4-Hydroxyretinoic acid],101
4,C[C@H]1[C@H](NC(=O)/C(=N\OC(C)(C)C(=O)O)c2csc(N)n2)C(=O)N1S(=O)(=O)O [Aztreonam],97.9
5,"C[C@H]1[C@H](NC(=O)/C(=N\OC(C)(C)C(=O)O)c2csc(N)n2)C(=O)N1S(=O)(=O)O [Aztreonam (Azactam, Cayston)]",104
6,O=C(NC(NC(=S)Nc1ccc(F)c([N+](=O)[O-])c1)C(Cl)(Cl)Cl)C(c1ccccc1)c1ccccc1 (stereo unspecified),94.8 ± 9.8
7,OCc1ccc(O[C@@H]2O[C@H](CO)[C@@H](O)[C@H](O)[C@H]2O)cc1 [Gastrodin (Gastrodine)],95
8,N#CC(c1ccnc(NCCc2cccnc2)n1)c1nc2ccccc2s1 (stereo unspecified) [JNK Inhibitor V],114
9,CN(N=O)C(=O)N[C@@H](C=O)[C@@H](O)[C@H](O)[C@H](O)CO [Streptozotocin],105
10,CN(N=O)C(=O)N[C@@H](C=O)[C@@H](O)[C@H](O)[C@H](O)CO [Streptozocin],98
11,Cn1cc(C2=C(c3ccc(Cl)cc3Cl)C(=O)NC2=O)c2ccccc21,104 and 106
12,Cc1ccc(C(=O)Nc2ccc(S(=O)(=O)O)c3cc(S(=O)(=O)O)cc(S(=O)(=O)O)c23)cc1NC(=O)c1cccc(NC(=O)Nc2cccc(C(=O)Nc3cc(C(=O)Nc4ccc(S(=O)(=O)O)c5cc(S(=O)(=O)O)cc(S(=O)(=O)O)c45)ccc3C)c2)c1 [Suramin hexasodium salt],95.8
13,CCC(=O)[C@@]1(C)[C@H](C)C[C@H]2[C@@H]3CCC4=CC(=O)C=C[C@]4(C)[C@H]3[C@@H](O)C[C@@]21C [Rimexolone],102
14,CCc1cc(C(N)=S)ccn1 [Ethionamide],97.2
15,CN(Cc1ccccc1)C(=O)[C@H](Cc1ccc2ccccc2c1)NC(=O)[C@@H]1C[C@@H](O)CN1C(=O)c1cn(C)c2ccccc12,97.2
16,"Cc1cn([C@@H]2C[C@@H](O)[C@H](CO)O2)c(=O)[nH]c1=O [Telbivudine (Sebivo, Tyzeka)]",99.3
17,NC(=O)c1ncn([C@@H]2O[C@H](CO)[C@@H](O)[C@H]2O)c1O [Mizoribine (Bredinin)],102
18,CN1CCN(C(c2ccccc2)c2ccc(Cl)cc2)CC1 (stereo unspecified) [Chlorcyclizine hydrochloride],101
19,O=C(N/N=C/c1ccc([N+](=O)[O-])o1)c1ccc(O)cc1 [Nifuroxazide],98.6
20,Cc1cccc(Nc2cc(Cl)nc(SCC(=O)O)n2)c1C,97.9 and 107
21,Cc1cc(NC(=O)c2cccc(NC(=O)/C=C/CN(C)C)c2)ccc1Nc1nccc(-c2cccnc2)n1,96.1
22,C[C@@H]1CN(c2c(F)c(N)c3c(=O)c(C(=O)O)cn(C4CC4)c3c2F)C[C@H](C)N1 [Sparfloxacin],109
23,CCOC(=O)c1c(C)[nH]c2ccc3c(c12)CN1CCc2cc(OC)ccc2C1O3 (stereo unspecified),91.5
24,CC[C@@H]1Cn2c(c3nc(-c4ccccc4)nc-3n(C)c2=O)N1,89.6

row,Compound,mean cytoplasmic OPP incorporation
1,CC[C@]12CCCN3CCc4c(n(c5ccccc45)C(=O)C1)[C@@H]32 [Eburnamonine (-)],85.8
2,CCn1cc(C(=O)O)c(=O)c2cc(F)c(N3CCN(C)CC3)cc21 [Pefloxacine],97.9
3,NC(=O)c1ccncc1 [Isonicotinamide],109
4,CC#CCOC(=O)c1c(C)nc2sc3c(c2c1N)CCC(O)C3 (stereo unspecified),84.1
5,CCCCCCCCCCC(C)(C)C(=O)Nc1c(OC)cc(OC)cc1OC,101
6,CNC(=C[N+](=O)[O-])NCCSCc1csc(CN(C)C)n1 [Nizatidine],97.2
7,O=C(O)C1=CCNCC1 [Isoguvacine hydrochloride],101
8,CCC1=C[C@@H]2CN(C1)Cc1c([nH]c3ccccc13)[C@@](C(=O)OC)(c1cc3c(cc1OC)N(C)[C@H]1[C@@](O)(C(=O)OC)[C@H](OC(C)=O)[C@]4(CC)C=CCN5CC[C@]31[C@@H]54)C2 [Vinorelbine (Navelbine)],130
9,CCn1c(=O)[nH]c2ccccc21,106
10,CC(C)CN(C[C@@H](O)[C@H](Cc1ccccc1)NC(=O)O[C@H]1CCOC1)S(=O)(=O)c1ccc(N)cc1 [Amprenavir (Agenerase)],106
11,C=CC(=O)Nc1cccc(Nc2nc(Nc3ccc(NC4CN(CCF)C4)cc3OC)ncc2C(F)(F)F)c1,91.8
12,COc1cc(C)nc(-n2nc(C)cc2OC)n1 [Epirizole],101
13,CS(=O)(=O)Nc1ccc([N+](=O)[O-])cc1Oc1ccccc1 [Nimesulide],97.3 ± 5.5
14,CCn1cc(C(=O)O)c(=O)c2cc(F)c(N3CCNC(C)C3)c(F)c21 (stereo unspecified) [Lomefloxacin hydrochloride],104
15,COc1cc(NC(=O)c2ccc(-c3ccc(Cl)cc3)o2)cc(OC)c1,102
16,CCOC(=O)CCC(=O)O[C@H]1[C@H](O[C@@H]2[C@@H](C)[C@H](O[C@H]3C[C@@](C)(OC)[C@@H](O)[C@H](C)O3)[C@@H](C)C(=O)O[C@H](CC)[C@@](C)(O)[C@H](O)[C@@H](C)C(=O)[C@H](C)C[C@@]2(C)O)O[C@H](C)C[C@@H]1N(C)C [Erythromycin Ethylsuccinate],104
17,C[C@]12C=CC(=O)C=C1CC[C@@H]1C2=CC[C@]2(C)[C@@H](C(=O)CN3CCN(c4cc(N5CCCC5)nc(N5CCCC5)n4)CC3)CC[C@@H]12,104
18,C[C@]12C=CC(=O)C=C1CC[C@@H]1[C@@H]2C(=O)C[C@@]2(C)[C@H]1CC[C@]2(O)C(=O)CO [Prednisone],99.6
19,C[C@]12C=CC(=O)C=C1CC[C@@H]1[C@@H]2C(=O)C[C@@]2(C)[C@H]1CC[C@]2(O)C(=O)CO [Prednisone (Adasone)],102
20,C=CCn1c(=O)n([C@@H]2O[C@H](CO)[C@@H](O)[C@H]2O)c2nc(N)[nH]c(=O)c21,99.2
21,Nc1ncnc2nc(-c3ccc(N4CCOCC4)nc3)cc(-c3cccc(Br)c3)c12 [ABT 702 dihydrochloride],101
22,CC1(C)[C@@H](O[C@H]2O[C@H](C(=O)O)[C@@H](O)[C@H](O)[C@H]2O[C@@H]2O[C@H](C(=O)O)[C@@H](O)[C@H](O)[C@H]2O)CC[C@]2(C)[C@H]3C(=O)C=C4[C@@H]5C[C@@](C)(C(=O)O)CC[C@]5(C)CC[C@@]4(C)[C@]3(C)CC[C@@H]12 [Glycyrrhizic acid],98.8
23,CC1(C)[C@@H](O[C@H]2O[C@H](C(=O)O)[C@@H](O)[C@H](O)[C@H]2O[C@@H]2O[C@H](C(=O)O)[C@@H](O)[C@H](O)[C@H]2O)CC[C@]2(C)[C@H]3C(=O)C=C4[C@@H]5C[C@@](C)(C(=O)O)CC[C@]5(C)CC[C@@]4(C)[C@]3(C)CC[C@@H]12 [Ammonium Glycyrrhizinate (AMGZ)],103
